Source: the supplement of paper PMC3334620
In all, about 33,000 sequences were measured (“E-score (-0.5 to 0.5)”: median about -0.017, highest 2% from about 0.3 on). Some of the results follow.

Each sequence was assayed against T1, Sut1 (UniProt P53032) (assay: PBM E-score (8-mer binding enrichment) (E-score (-0.5 to 0.5)); higher = stronger / more preferred TF binding; most listed sequences are background and not binding sites). Settings: protein concentration: 200 nM; construct: GST-full length.
T1 sequence: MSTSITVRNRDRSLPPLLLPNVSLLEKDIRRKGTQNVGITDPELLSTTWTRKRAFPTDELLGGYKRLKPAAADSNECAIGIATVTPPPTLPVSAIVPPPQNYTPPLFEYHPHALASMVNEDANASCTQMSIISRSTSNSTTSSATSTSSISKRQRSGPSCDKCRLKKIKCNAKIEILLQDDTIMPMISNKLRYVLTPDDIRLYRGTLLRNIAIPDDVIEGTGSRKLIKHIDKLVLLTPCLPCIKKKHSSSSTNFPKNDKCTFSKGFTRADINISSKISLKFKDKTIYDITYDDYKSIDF
Experimental: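 Universal 'all 10-mer' protein binding microarrays (Agilent AMADID 015681) probed with GST-tagged S. cerevisiae TFs (full-length or DBD) made by in vitro transcription/translation (PURExpress), about 100-200 nM. Bound TF was detected with fluorescent anti-GST. Each ungapped 8-mer (which stands for itself and its reverse complement) is scored by the PBM enrichment score (E-score), a modified Wilcoxon-Mann-Whitney statistic from -0.5 to +0.5, computed with the Universal PBM Analysis Suite. Scale: above 0.35 generally sequence-specific binding.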

Sequence | PBM E-score
TGTAGCAA | 0.0562
GCTCACCA | -0.217
ATTATGTC | 0.0943
AAGCTTCC | -0.156
GGGCAGGA | -0.247
AATTACCA | 0.242
GAATCGAC | -0.0287
CTAACCTA | 0.0178
GAGACTGA | 0.14
GCCCATAA | -0.0955
CGCTTACA | -0.0348
AGAATACC | 0.132
AGTACCGG | 0.178
CTAAGTAG | 0.0529
GAGGTCGC | -0.189
CGAGACTC | -0.163
GACCGGGC | -0.0226
TAGTTTAA | 0.211
AACTCATT | 0.0142
AGTGGCCA | -0.202
CATGCATG | -0.0882
ACCGCCGT | -0.0174

Sequence | PBM E-score
TAACCCTA | -0.115
GCGTAGCA | -0.141
CCCGCCAG | -0.224
CTACGACA | -0.0304
ACCCAGAG | 0.0429
CGTTAGGC | -0.162
CAAAAAGA | 0.159
AACCTACT | 0.0218
CTCGGAGC | 0.389
ACCCCACA | -0.111
AAGGGTGC | -0.225
TAGTCTCA | -0.0247
CATTTCCG | 0.293
GTCACTAA | 0.0329
ATTACCGC | 0.107
TCAAGGGA | -0.123
GCTTCCCC | -0.339
ATCAACCC | 0.0629
AGGCGCGA | -0.0511
AGCTCCAA | 0.0776
GGCCTCGA | -0.17
CCTGGCAA | -0.195

Sequence | PBM E-score
CACCGACC | -0.226
ACTGCGAT | -0.0293
AGACCGCA | -0.0648
AATGTTAA | 0.217
CAAGCAAG | -0.13
GGAGATCC | 0.245
TTGCAAAA | 0.216
AATGTCTA | 0.118
GACCCGTC | -0.239
CGGGGGGA | -0.486
CTAAGTTC | -0.0983
AACATATA | 0.223
AGGGCTGG | -0.131
CATTTGGA | 0.112
AGAGTTCA | -0.0646
ACCCATTC | 0.0138
ATTACTAA | 0.191
GGGGGCCA | -0.294
ACATGCTG | -0.22
ATACTATG | 0.141
AATAAAAC | 0.244
GGCAAGTA | -0.0619

Sequence | PBM E-score
CATGATTC | -0.0967
GTCAGAAA | 0.0805
ACACAACC | -0.0372
ATAATGGA | 0.0951
CGTGCAGC | -0.0878
CGAAGTGC | -0.018
GTATTCCA | -0.00791
TTACTAAA | 0.144
CCTAGGCG | -0.317
GACGGGGC | -0.17
CAACGTTA | 0.0883
AATTCACA | 0.171
CCCGTAGC | -0.198
AATAAGCG | -0.162
CTACACAC | -0.055
GTTACTCA | 0.114
CTTGCGCA | -0.056
CGGGATGC | -0.143
CGTGATGC | -0.155
CCGACGGC | -0.175
